# Results: the supplement of paper PMC3724861
# The list shows a part of the results.
# System: T1, Caupolican (Caup) homeodomain DNA-binding domain
# T1 sequence: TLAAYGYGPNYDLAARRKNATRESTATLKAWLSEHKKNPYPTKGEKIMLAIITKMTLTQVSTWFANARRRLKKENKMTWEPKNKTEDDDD
# Experiment: PBM E-score (8-mer, recovered from the published 9-mer minima) (E-score (dimensionless, -0.5 to 0.5)); Drosophila protein; higher = stronger relative binding preference, active = 0.31 or more
# Procedure, shortened: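 Caup's homeodomain DNA-binding domain (residues 214-303) was produced by in vitro transcription and translation and applied at 100 nM to custom-designed protein binding microarrays. Each value is an enrichment score giving relative binding preference for a short DNA word; higher means stronger. Published 9-mer scores were the minimum of their two constituent 8-mer scores, and the 8-mer values were recovered from those minima. A cutoff of 0.31 marks candidate binding sequences.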
row,Sequence,PBM E-score
1,ACTAGAGC,inactive: -0.0268
2,CAGCCGCC,inactive: -0.256
3,AGAAGAAA,inactive: -0.062
4,AATATAGC,inactive: -0.00463
5,CGCGGGGC,inactive: -0.234
6,GCTAGCAA,inactive: 0.00952
7,AATCGGGG,inactive: -0.185
8,GAGTTCGA,inactive: 0.049
9,ATATTACC,inactive: 0.186
10,TGCGCACA,≥ 0.0432
11,AATTATCG,inactive: 0.101
12,TACTAGTA,≥ 0.285
13,GAGGTCCC,inactive: -0.236
14,ACTAACAT,inactive: 0.307
15,ACCAAACG,inactive: -0.119
16,CTACTGTC,inactive: -0.00882
17,GAGTTTAC,inactive: -0.00241
18,ACTCCAGT,≥ -0.0222
19,ACTCTTCG,inactive: 0.0397
20,GCCCTAAA,inactive: -0.236
21,GCCCCTTA,inactive: -0.237
22,GCTAACTA,inactive: 0.0176
23,AACGGCGT,inactive: -0.0513
24,CGACTTAG,inactive: -0.00603

row,Sequence,PBM E-score
1,AGTACGAG,inactive: 0.0724
2,CAAGCAGA,inactive: 0.0359
3,ATAGCGCC,inactive: -0.0914
4,ATTAGCTA,≥ 0.129
5,CAACCGGC,inactive: -0.111
6,ATTCGCCC,inactive: -0.104
7,ACCCTGCG,inactive: -0.172
8,AAGTGCCT,inactive: -0.12
9,AGCACTAC,inactive: 0.0109
10,ATGAGCTG,inactive: -0.0339
11,ATGTGTAC,active: 0.348
12,GGCATTTA,inactive: -0.019
13,CCAGATAA,inactive: 0.0647
14,TGCCCAAA,inactive: -0.14
15,AACCTAAC,inactive: 0.00293
16,AAGGTGGG,inactive: -0.205
17,CCTGGTGC,inactive: -0.127
18,CCTATGGA,inactive: 0.00188
19,ACGCGTGG,inactive: -0.109
20,CAACTAAC,inactive: 0.134
21,CCAGACGC,inactive: -0.198
22,AAACGGAA,inactive: -0.0372
23,GCGGAGGA,inactive: -0.14
24,ACGAGTAT,inactive: 0.137

row,Sequence,PBM E-score
1,GGCAATCA,inactive: 0.0644
2,CATGTTGG,inactive: 0.285
3,ACCAAGCT,inactive: 0.098
4,CACCAGGG,inactive: -0.167
5,CTCCTTGA,inactive: -0.0809
6,AGTTGGAC,inactive: -0.0407
7,GGGCCGCA,inactive: -0.273
8,CCGTTAAC,inactive: 0.0319
9,AAAAAATT,inactive: 0.0131
10,AGTCCCAG,inactive: -0.111
11,CTGAGTAA,inactive: 0.0161
12,ACTCCACG,inactive: -0.122
13,ATAATAAC,inactive: 0.186
14,CTAAGCCA,inactive: -0.122
15,CCTGTAGA,inactive: 0.149
16,GCCATCTA,inactive: -0.121
17,AGAATAAG,inactive: 0.101
18,AGATCAAA,inactive: 0.00943
19,ATACCCTG,inactive: 0.0156
20,ACAAACCA,inactive: 0.0875
21,AACGCGCA,≥ 0.0378
22,ACTGCTGA,inactive: -0.0341
23,AAATGAAG,inactive: -0.0254
